{"source": "paper PMC9911399", "about": "“Two distinct binding modes provide the RNA-binding protein RbFox with extraordinary sequence specificity”", "binders": {"B1": {"name": "AAACGGC (DNA:RNA)", "RNA": "GGGAGACCGGAAUUCAGAUUGUCCAAACGGCUUAAAUCCCGUCGUAGCCACCA", "DNA 1": "CAATCTGAATTCCGGTCTCCC", "DNA 2": "TGGTGGCTACGACGGGATT"}, "B2": {"name": "CUGUCGA (DNA:RNA)", "RNA": "B1 RNA with A25C, A26U, A27G, C28U, G29C, C31A", "DNA 1": "CAATCTGAATTCCGGTCTCCC", "DNA 2": "TGGTGGCTACGACGGGATT"}, "B3": {"name": "AAUCGUG (DNA:RNA)", "RNA": "B1 RNA with A27U, G30U, C31G", "DNA 1": "CAATCTGAATTCCGGTCTCCC", "DNA 2": "TGGTGGCTACGACGGGATT"}, "B4": {"name": "GAGCUCA (DNA:RNA)", "RNA": "B1 RNA with A25G, A27G, G29U, G30C, C31A", "DNA 1": "CAATCTGAATTCCGGTCTCCC", "DNA 2": "TGGTGGCTACGACGGGATT"}, "B5": {"name": "CUUGAGU (DNA:RNA)", "RNA": "B1 RNA with A25C, A26U, A27U, C28G, G29A, C31U", "DNA 1": "CAATCTGAATTCCGGTCTCCC", "DNA 2": "TGGTGGCTACGACGGGATT"}, "B6": {"name": "AUGAAGU (DNA:RNA)", "RNA": "B1 RNA with A26U, A27G, C28A, G29A, C31U", "DNA 1": "CAATCTGAATTCCGGTCTCCC", "DNA 2": "TGGTGGCTACGACGGGATT"}, "B7": {"name": "UACAAAG (DNA:RNA)", "RNA": "B1 RNA with A25U, A27C, C28A, G29A, G30A, C31G", "DNA 1": "CAATCTGAATTCCGGTCTCCC", "DNA 2": "TGGTGGCTACGACGGGATT"}, "B8": {"name": "ACAAGCG (DNA:RNA)", "RNA": "B1 RNA with A26C, C28A, G30C, C31G", "DNA 1": "CAATCTGAATTCCGGTCTCCC", "DNA 2": "TGGTGGCTACGACGGGATT"}, "B9": {"name": "CGUAGGG (DNA:RNA)", "RNA": "B1 RNA with A25C, A26G, A27U, C28A, C31G", "DNA 1": "CAATCTGAATTCCGGTCTCCC", "DNA 2": "TGGTGGCTACGACGGGATT"}}, "note": "Numbering of substitutions follows the chain as printed; changes in the protein carry UniProt numbers. The list shows a part of the results.", "data": [{"target": "T1, RBFOX1 RRM (Homo sapiens, UniProt Q9NWB1 109-208)", "T1 sequence": "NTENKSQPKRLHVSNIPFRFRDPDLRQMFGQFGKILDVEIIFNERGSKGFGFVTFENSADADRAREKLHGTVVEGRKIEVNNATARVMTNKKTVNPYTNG", "experiment": "EMSA; HiTS-Eq, 1 nM pool, 10 min; buffer printed only for the single-RNA assays: 10 mM Tris pH 7.5, 150 mM NaCl, 3.4 mM EDTA, 0.001% NP-40, 30 C", "details": "tags: His6 N-terminal (pET28a); label: 5' 32P", "in_short": "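Relative association constants, normalised to the cognate motif, were derived by comparing read counts of each RNA species with those of the control reaction. The RNA sequenced was the free fraction, separated by 8% native PAGE after a 10 min equilibration in 50 µL of 1 nM 5′-radiolabelled RNA (7 randomized nucleotides) with increasing concentrations of purified wild-type or mutant RbFox RRM.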", "values": [{"binder": "B1", "binding signal": "0.00737 KA relative to UGCAUGU"}, {"binder": "B2", "binding signal": "0.0178 KA relative to UGCAUGU"}, {"binder": "B3", "binding signal": "0.0103 KA relative to UGCAUGU"}, {"binder": "B4", "binding signal": "0.0104 KA relative to UGCAUGU"}, {"binder": "B5", "binding signal": "0.0138 KA relative to UGCAUGU"}, {"binder": "B6", "binding signal": "0.00743 KA relative to UGCAUGU"}, {"binder": "B7", "binding signal": "0.00661 KA relative to UGCAUGU"}, {"binder": "B8", "binding signal": "0.00436 KA relative to UGCAUGU"}, {"binder": "B9", "binding signal": "0.00229 KA relative to UGCAUGU"}]}]}
